Paper PMC4336329 (PLoS ONE, 2015)
In all, about 310,000 compounds went through this assay and about 2,200 (0.71%) showed an effect of 50% or more. The effect is printed as a negative number. This is one part of the list. Where a SMILES comes first, the peptide text is derived from it. [ ]: non-standard residue; d: D form. The star is where a group is joined. Hyp = O=C(O)[CH]1C[CH](O)CN1; Cbz = O=C(OCc1ccccc1)*; OBn = c1ccc(CO*)cc1

These molecules were tested against human ether-à-go-go-related gene (hERG) potassium channel (human, UniProt Q12809) (assay: primary screen, population patch clamp on CHO cells stably expressing hERG).
Sequence of human ether-à-go-go-related gene (hERG) potassium channel (Q12809 whole entry, looked up): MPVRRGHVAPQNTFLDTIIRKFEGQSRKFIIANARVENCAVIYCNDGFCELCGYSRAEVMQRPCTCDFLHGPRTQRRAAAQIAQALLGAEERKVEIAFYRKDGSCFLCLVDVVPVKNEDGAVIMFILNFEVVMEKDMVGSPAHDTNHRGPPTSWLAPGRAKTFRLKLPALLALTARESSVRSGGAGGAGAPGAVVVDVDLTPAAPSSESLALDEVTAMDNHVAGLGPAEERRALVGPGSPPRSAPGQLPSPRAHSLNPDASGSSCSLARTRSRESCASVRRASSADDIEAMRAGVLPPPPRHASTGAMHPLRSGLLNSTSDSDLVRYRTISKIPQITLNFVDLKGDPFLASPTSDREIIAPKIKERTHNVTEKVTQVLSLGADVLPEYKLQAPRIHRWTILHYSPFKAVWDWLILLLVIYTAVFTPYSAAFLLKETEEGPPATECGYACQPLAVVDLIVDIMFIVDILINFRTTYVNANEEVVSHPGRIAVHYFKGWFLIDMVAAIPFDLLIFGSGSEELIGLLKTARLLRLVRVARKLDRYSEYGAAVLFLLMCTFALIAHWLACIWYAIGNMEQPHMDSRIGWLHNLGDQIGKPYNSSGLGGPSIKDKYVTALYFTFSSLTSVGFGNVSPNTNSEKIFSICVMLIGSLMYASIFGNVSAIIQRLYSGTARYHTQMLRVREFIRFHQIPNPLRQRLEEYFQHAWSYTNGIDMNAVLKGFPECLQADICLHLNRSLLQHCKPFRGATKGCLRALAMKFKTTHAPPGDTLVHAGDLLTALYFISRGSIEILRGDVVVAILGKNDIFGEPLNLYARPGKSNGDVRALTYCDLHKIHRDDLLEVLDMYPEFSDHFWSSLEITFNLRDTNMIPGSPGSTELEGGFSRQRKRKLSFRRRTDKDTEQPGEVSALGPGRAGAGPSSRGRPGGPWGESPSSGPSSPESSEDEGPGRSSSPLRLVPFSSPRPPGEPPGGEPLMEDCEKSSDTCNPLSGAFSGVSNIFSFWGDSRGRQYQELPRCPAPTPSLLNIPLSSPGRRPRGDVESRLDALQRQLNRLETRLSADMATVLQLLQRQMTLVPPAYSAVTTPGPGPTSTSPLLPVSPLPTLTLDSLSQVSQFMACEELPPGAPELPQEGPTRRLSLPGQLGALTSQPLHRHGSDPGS

SMILES	hERG current change (%, negative = inhibition) at 1uM
COC(=O)c1cccc(CSc2nnc(-c3ccco3)n2-c2ccccc2)c1	-8.32%
CC(C)(C)S(=O)(=O)c1cnc(N2CCCC2)nc1N	10.1%
CCOC(=O)c1c(-c2ccccc2)oc2ccc(O)c(CN(C)C)c12	-2.31%
CCC1(c2ccc(F)cc2)NC(=O)N(CC(=O)Nc2ccc(C)c(S(=O)(=O)N3CCOCC3)c2)C1=O (stereo not drawn)	8.83%
Cc1c(Nc2nc(-c3ccccc3)cs2)c(=O)n(-c2ccccc2)n1C	5.67%
CC1CCCN(CC(=O)c2ccc(Cl)c(Cl)c2)C1 (stereo not drawn)	3.63%
O=C(O)c1ccc2c(=O)n3c(nc2c1)/C(=C/c1cccc(O)c1)CC3	15.3%
CCOC(=O)C1(Cc2ccc(OC)cc2)CCN(C(=O)Cc2cccnc2)CC1	4.38%
COc1ccccc1C(=O)NC(=O)Nc1cccc(Cl)c1	7.09%
Oc1ccc2c(c1)C1CCCC1(N1CCOCC1)O2 (stereo not drawn)	6.86%
CCOc1ccc(N2C(=O)CC(N)C2=O)cc1 (stereo not drawn)	5.8%
CCC(C(=O)OCC(=O)Nc1ccc(C)c(S(=O)(=O)N2CCOCC2)c1)c1ccccc1 (stereo not drawn)	-17.1%
Cc1cccc(-c2nnc(-c3cccc(NC(=O)Cc4cccs4)c3)o2)c1	15.4%
Cc1ccc(NC(=O)Nc2ccc(C(=O)N3CCOCC3)cc2)cc1	2.37%
S=c1[nH]nc(-c2ccc3c(c2)OCO3)n1-c1ccccc1	18.1%
COc1ccc(Cc2c(O)[nH]c(=S)[nH]c2=O)cc1	11%
CC(C)(C)NS(=O)(=O)c1cc2c3c(c1)CCN3C(=O)CC2	17.1%
O=C(Nc1nnc(SCc2ccc(F)cc2)s1)C1=COCCO1	7.59%
CN(C)S(=O)(=O)c1ccc2oc(SCC(=O)Nc3ccccc3F)nc2c1	3.67%
CC(=O)Nc1ccc(OCC(O)Cn2nc(C)c(C(C)=O)c2C)cc1 (stereo not drawn)	6.18%
Oc1c(Cl)cc(Cl)cc1C=Nc1ccccc1N1CCCC1	0.193%
N#Cc1sc2nc(N3CCCCC3)c3c(c2c1N)CCCC3	3.55%

SMILES	hERG current change (%, negative = inhibition) at 1uM
Cl.Nc1ccc2nc(CN3CCOCC3)[nH]c2c1	11.4%
CC(=O)C1=C(C)Nc2ncnn2C1c1ccccc1OCc1ccccc1 (stereo not drawn)	13.5%
Cc1ccc(NC(=O)Nc2nnc(Cc3ccc(F)cc3)s2)cc1	13.9%
CS(=O)(=O)N1CCN(Cc2ccccc2C(F)(F)F)CC1	2.42%
COc1ccccc1C(=O)NNC(=O)C(=O)NC(C)(C)C	14.8%
CCOc1ccccc1NC(=O)CN(c1ccc(OC)cc1)S(=O)(=O)c1c(C)[nH]c(=O)[nH]c1=O	13.4%
Cc1cccc(NC(=O)CSc2nc(N)c(NC(=O)c3cccs3)c(=O)[nH]2)c1	11.3%
COc1ccc(C(=O)CCc2ccccc2O)c(OC)c1	13.6%
COCCCN1C(=O)/C(=C\c2ccc3c(c2)OCO3)C(C(=O)OC)=C1C	6.26%
COc1ccc2c(c1)C(=O)N(Cc1ccccc1)C(=O)C2(C)C	8.81%
CCCCOc1ccc(/C(O)=C2/C(=O)C(=O)N(CCN(C)C)C2c2ccc(O)c(OC)c2)cc1 (stereo not drawn)	4.79%
Cc1cc(/C=N\NC(=O)COc2cccc3cccnc23)c(C)n1-c1ccc(Br)cc1	-10.6%
CCOC(=O)C1CCN(C(=O)Cn2cc(C(=O)c3ccco3)c3ccccc32)CC1	3.22%
Cc1cc(NC(=O)/C=C/c2ccccc2)no1	17.7%
CCc1nc2ccccc2c(C(=O)Nc2ccc(F)cc2)c1C	9.64%
CCC(C)NC(=O)CCC(=O)NNc1nc2ccccc2c2nc(C)nn12 (stereo not drawn)	11.3%
O=C(NCC1CCCO1)C1CCCN(S(=O)(=O)c2ccc(F)cc2)C1 (stereo not drawn)	14%
COc1cc(/C=C2\C(=N)N3N=C(S(C)(=O)=O)SC3=NC2=O)ccc1OCCOc1ccccc1C	8.18%
Cc1c(F)cccc1NC(=O)c1ccc2c(c1)CCN2S(C)(=O)=O	7.21%
Cc1cc(NC(=O)COc2ccc(N(C)S(=O)(=O)c3ccccc3)cc2)no1	11.4%
COc1cc(CNc2ccc3[nH]c(=O)[nH]c3c2)cc(Br)c1OCc1ccccc1F	13%
CCn1cc(C(=O)N[C@@H](CCSC)C(=O)NCCN2CCOCC2)c(=O)c2cc3c(cc21)OCO3	16.4%

SMILES	hERG current change (%, negative = inhibition) at 1uM
O=C(OCC(=O)N1N=C(c2ccc(Cl)cc2)CC1c1ccco1)c1ccco1 (stereo not drawn)	11.1%
COc1ccccc1-c1cn(S(=O)(=O)c2ccc(C)cc2)nc1N	11%
Cc1ccc([N+](=O)[O-])cc1NC(=O)c1ccc(C(C)(C)C)cc1	-4.91%
CCCCn1c(N)c(N(CCOC)C(=O)CSCc2ccc(C)cc2)c(=O)[nH]c1=O	12.9%
COc1ccc(C2=NOC(Cn3nc(C(=O)NCc4ccccc4OC)cc3-c3ccccc3)C2)cc1 (stereo not drawn)	2.69%
C=CCSc1nnc(NC(=O)c2cccc(S(=O)(=O)N(C)c3ccccc3)c2)s1	3.78%
COc1ccc(S(=O)(=O)NCC(c2cccs2)N2CCc3ccccc3C2)cc1 (stereo not drawn)	4.93%
Cn1c(CNC(=O)c2ccco2)nnc1SCC(=O)c1ccc(F)cc1	11.1%
Cc1ccc(NC(=O)CCNC(=O)N2C[C@H]3C[C@@H](C2)c2cccc(=O)n2C3)c(C)c1	12.1%
Cl.OC(COc1c(F)cc(Br)cc1F)CN1CCc2ccccc2C1 (stereo not drawn)	-29.2%
COc1ccc(-n2c(SCC(=O)Nc3cc(C)on3)nc3ccccc3c2=O)cc1Cl	-3.86%
O=C(O)c1cccc(NS(=O)(=O)c2ccc(Oc3ccc(S(=O)(=O)Nc4cccc(C(=O)O)c4)cc3)cc2)c1	12.5%
COc1ccccc1OCC(=O)Nc1cccc(N(C)S(C)(=O)=O)c1	-7.38%
O=C(CN1C(=O)C2CC=CCC2C1=O)Nc1nccs1 (stereo not drawn)	5.51%
Cc1ccc(N(CCC#N)C(=O)COC(=O)c2cc(C)no2)cc1	8.57%
COCCCNC(=O)Cn1cc2c(n1)CCC(C)C2 (stereo not drawn)	3.92%
COc1ccc(C(C)NC(=O)c2ccoc2C)cc1OC (stereo not drawn)	0.354%
Cc1ccccc1C(=O)N1CCC(C(=O)NCc2ccc(Cl)cc2)CC1	12.1%
N#Cc1c(-c2ccco2)cc(-c2ccccc2)[nH]c1=O	10.6%
CCOC(=O)CSCC(=O)N1CCC(Cc2ccccc2)CC1	12.1%
CSc1ccccc1NC(=S)NC1CCCC1	4.68%
O=C(O)CCCCCN1C(=O)CSC1=S	3.95%

SMILES	hERG current change (%, negative = inhibition) at 1uM
CC1(C)Cc2c(C#N)c(SCCC#N)nc(N3CCOCC3)c2CO1	9.53%
OCCN1C2CCC1CC(O)(c1ccc(F)cc1)C2 (stereo not drawn)	8.22%
OCc1nc2ccccc2n1/N=C/c1cccs1	30.6%
Cn1c(SCc2ccccc2)nnc1-c1cnccn1	-6.49%
CC(=O)NC(CC(=O)OCC(=O)c1c(N)n(CC(C)C)c(=O)n(C)c1=O)c1ccccc1 (stereo not drawn)	6.02%
CCOC(=O)c1sc(N=NC2=C(O)CCCC2=O)c(C(=O)OCC)c1C	10%
O=[N+]([O-])c1cccc(-c2nc(-c3ccccc3)no2)c1	9.82%
O=C(c1ccc2c(=O)n(Cc3ccc4c(c3)OCO4)c(=O)[nH]c2c1)N1CCN(c2ccccc2)CC1	4.75%
CCCCCOc1ccc(C(=O)CCC(=O)Nc2ccc(NC(C)=O)cc2)cc1	14.2%
CCOC(=O)CCC(=O)Nc1ccc(S(=O)(=O)Nc2cc(OC)nc(OC)n2)cc1	12.4%
Cc1ccc(-n2c(=O)[nH]c3cc(C(=O)NC4CCN(Cc5ccccc5)CC4)ccc3c2=O)cc1	12.1%
COc1ccc(-n2nnnc2/C=C/Nc2cc(C(F)(F)F)ccc2OC)cc1	14.8%
COc1cc(CNc2ncn[nH]2)ccc1OCC(=O)NC(C)(C)C	18.6%
CC(C)N(Cc1ccccc1)C(=O)COC(=O)c1cnccn1	9.98%
C1=C(CCNc2ncnc3c2[nH]c2ccccc23)CCCC1	10.1%
CS(=O)(=O)N(Cc1nc2sc3c(c2c(=O)[nH]1)CCCC3)C1CCCCC1	6.71%
CCn1c(C(=O)N2CCC(C(=O)N3CCC4(CC3)OCCO4)CC2)cc2sccc21	7.1%
Cc1scc(C(=O)O)c1-c1c(C(=O)O)csc1C	20.4%
O=C(NCC(=O)N1CC(O)CC1C(=O)N1CCCC1C(=O)OCc1ccccc1)OCc1ccccc1 (stereo not drawn) (Cbz-Gly-[Hyp]-Pro-OBn; configuration not given here)	16.1%
Cc1ccc2nc(Cl)c(C#N)cc2c1	10.8%
COC(=O)C(C)Oc1ccc2c(c1)O/C(=C\c1ccco1)C2=O (stereo not drawn)	10.9%
